Results from the supplement of paper PMC12217912.
The list shows a part of the results. The full chains were built here from the parent and the listed change. Values near 0.05 are background.

B1: TEV protease; numbered along this chain (parent)
chain: MGESLFKGPRDYNPISSSICHLTNESDGHTTSLYGIGFGPFIITNKHLFRRNNGTLVVQSLHGVFKVKDTTTLQQHLVDGRDMIIIRMPKDFPPFPQKLKFREPQREERICLVTTNFQTKSMSSMVSDTSCTFPSGDGIFWKHWIQTKDGQCGSPLVSTRDGFIVGIHSASNFTNTNNYFTSVPKNFMELLTNQEAQQWVSGWRLNADSVLWGGHKVFMVKPEEPFQPVKEATQL

Variants of: B1
Experiment: raw area under fraction-flipped curve 0-4 h after induction (AUC4h, not background-subtracted), DNA-recorder readout of cleavage of the substrate (dimensionless); higher = more cleavage of the substrate by the protease variant
Details: temperature: 34 °C; time window: 0-4 h after rhamnose induction
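Note: Bxb1 expression induced with 0.2% (w/v) L-rhamnose at OD600 near 0.5, cultures sampled hourly, flipped fraction per protease–substrate barcode pair counted by paired-end Illumina sequencing.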

Variant	area with substrate ECLYFQS	area with substrate EDLYFQS	area with substrate EFLYFQS	area with substrate EGLYFQS	area with substrate EHLYFQS	area with substrate EILYFQS	area with substrate EKLYFQS	area with substrate ELLYFQS	area with substrate EMLYFQS	area with substrate EPLYFQS	area with substrate EQLYFQS	area with substrate ERLYFQS	area with substrate ESLYFQS	area with substrate EVLYFQS	area with substrate EWLYFQS	area with substrate EALYFQS	area with substrate EYLYFQS	area with substrate ETLYFQS	area with substrate EELYFQS
S16W	0.12	0.14	0.0986	0.0947	0.115	0.0936	0.109	0.0903	0.161	0.13	0.116	0.104	0.128	0.0927	0.109	–	–	–	–
N24L	0.112	0.112	–	0.0926	0.104	0.113	0.0994	0.101	0.116	0.117	0.101	0.118	–	0.0993	0.0968	–	–	–	–
Q227T	–	0.109	–	–	0.0975	0.102	0.115	0.0721	0.12	0.127	–	0.109	0.122	–	0.0983	0.131	0.111	–	–
Q234R	0.103	0.115	0.128	–	–	0.082	–	0.0994	0.0975	–	0.118	0.12	0.092	0.15	–	0.126	0.104	0.108	–
F41L	0.0684	–	0.0933	0.112	0.117	0.105	0.113	–	0.109	–	0.0879	–	0.0961	0.0886	0.108	–	0.117	0.126	0.121
G8V	0.103	–	–	–	–	–	–	–	0.0991	0.129	–	0.0795	–	–	0.0726	–	–	–	–
P9V	0.116	–	–	0.0954	–	0.0916	–	–	–	0.12	0.169	–	0.104	0.101	–	–	–	–	0.133
P9G	0.103	–	–	–	0.0908	0.0868	0.0929	–	–	0.0832	0.115	0.0817	0.111	0.0897	0.0922	–	0.0893	0.125	0.129
Y34Q	0.085	–	–	0.062	0.0634	0.0706	0.0809	–	0.0414	–	–	0.0848	0.0696	0.0912	0.0487	–	–	–	–
Y34I	0.0594	0.0943	0.105	0.0783	0.0896	0.0663	0.0848	–	–	–	–	–	0.0855	–	–	–	–	–	–
T30K	0.113	–	0.0791	–	–	0.0467	–	0.0966	0.111	0.122	0.122	–	0.0893	0.0946	–	–	0.0778	0.0984	–
H47V	0.0583	–	0.0558	0.0653	0.0567	0.0528	0.0558	0.0528	0.0537	–	0.0628	0.0594	0.0591	0.0559	0.0415	–	–	0.0633	0.0536
E25T	0.123	0.118	–	–	–	0.075	0.0824	–	–	–	–	0.0947	0.0917	0.0858	–	–	–	–	–
T44C	0.1	–	0.0591	–	–	0.0828	0.0919	0.1	0.102	0.123	0.108	0.0961	0.0901	0.0848	0.0523	–	0.0893	0.0989	0.0986
I19C	0.115	0.13	–	0.121	–	0.11	0.0734	0.111	0.108	–	0.126	0.133	0.0982	0.0737	0.108	–	–	–	0.113
I43T	0.0651	0.0937	–	0.0657	0.0791	0.0681	0.0731	–	0.087	–	0.0943	0.0844	0.0673	0.0796	0.0819	–	0.081	–	0.0967
I43P	0.0415	0.0428	0.0403	–	0.0535	0.0351	0.0457	0.0438	0.045	0.0495	0.0396	0.0531	0.0554	0.0362	–	–	0.05	0.0453	0.0562
K46H	0.0491	0.0654	0.0109	–	0.0711	0.055	0.0522	–	0.103	0.0576	0.0535	0.0669	0.0647	0.0562	0.0567	–	–	–	0.0586
G37K	0.0487	–	0.0568	0.0593	0.0718	0.0495	–	0.0311	–	0.061	0.0579	0.066	0.0495	0.0576	–	–	–	–	0.068
G37N	0.0765	–	–	0.0739	–	0.069	–	0.0631	0.0568	–	–	0.0601	0.0727	0.0595	–	–	–	0.0807	–
K230W	0.091	–	–	–	0.0873	0.0812	–	0.0851	0.135	–	0.0845	0.0883	0.131	0.1	–	0.0704	0.0896	–	0.131
K230T	0.111	0.121	–	–	–	0.0918	–	0.0726	0.12	–	0.0831	0.0971	0.0909	0.0802	0.0668	0.136	–	–	–
K230L	0.101	0.0911	–	–	–	0.0597	0.0743	–	0.102	–	–	–	0.0931	0.0818	–	0.104	0.101	0.11	–
F226A	0.0673	–	–	0.0989	–	0.108	0.102	–	–	0.111	0.0887	–	0.112	–	–	0.122	–	0.121	0.149
F226K	0.111	0.145	–	–	0.12	0.122	0.111	–	0.117	0.124	0.143	0.0652	0.101	0.102	0.11	0.127	0.101	0.109	0.102
S17R	0.107	0.147	0.124	–	0.0946	0.113	–	0.119	0.124	–	0.131	0.119	0.102	0.126	0.104	–	–	–	–
S17K	0.114	0.106	0.0973	0.088	0.138	0.105	0.146	–	0.114	0.0983	0.136	0.11	0.106	0.0952	0.127	–	–	–	0.111
S17V	0.105	0.0933	0.114	–	0.0798	0.0757	0.13	0.0887	0.102	0.128	0.116	0.0894	0.104	0.0929	0.107	–	0.1	0.117	–
C20H	0.0411	–	0.051	0.0494	0.0524	0.0337	0.0519	0.0393	–	0.049	0.0486	0.048	0.0625	0.0409	–	–	–	–	0.0626
